Assay results: patent publication US7812121B2 (priority 2006, dated 2010)

Assay: SEC-SLS solution molecular weight / self-association
Type: physicochemical
Settings: purified mimetibody

Molecule | SEC-SLS association state of mimetibodies
SEQ ID NO: 77: GLP-2 mimetibody with A2G, N16G, L17Q analog (protein, GLP-2 Mimetibody nucleic acid sequence with A2G, N16G, L17Q mutation) HGDGSFSDEMNTILDGQAARDFINWLIQTKITDGSGGGSGTLVTVSS[in this place human IgG4 Fc with S228P F234A L235A (EU numbers)] | molecular weight consistent with monomer
SEQ ID NO: 75: GLP-2 mimetibody with A2G, L17Q analog (protein, GLP-2 Mimetibody amino acid sequence with A2G, L17Q mutation) HGDGSFSDEMNTILDNQAARDFINWLIQTKITDGSGGGSGTLVTVSS[in this place human IgG4 Fc with S228P F234A L235A (EU numbers)] | monomer and dimer mixture
